A value given as a limit tells only on which side of the number the result lay.

The values that follow come from patent publication US12377163B2, “Anti-B7H3 antibody-exatecan analog conjugate and medicinal use thereof” (JIANGSU HANSOH PHARMACEUTICAL GROUP CO., LTD, priority 2018, dated 2025).

Data set [1] is described as follows: Antibody stability, SEC test. The data set is classed as physicochemical. Here is the method:
(§1) The stability of h1702 and h1702DS was tested by SEC, non-reducing CE-SDS test method (pH 9.0) and IEX test method.
SEC test: Waters e2695 chromatograph and Xbridge BEH 200A SEC column were used. 50 μg of antibody was loaded, and eluted with PBS mobile phase in constant gradient.

Data set [2] is described as follows: Antibody stability, non-reducing CE-SDS (pH 9.0). The data set is classed as physicochemical. Here is the method: as §1
Samples were processed using the Beckman SDS-MW Analysis Kit. 100 μg of protein was added with a buffer solution, and heated to denature. Data was collected using PA800 capillary electrophoresis apparatus.

Data set [3] can be described thus: Antibody stability, IEX test. The data set is classed as physicochemical. The method, then: as §1
Waters Acquity H-Class chromatograph and Thermo MAbPac SCX-10 column were used. 50 μg of the antibody was loaded, and a linear gradient was applied, using CX-1 pH Gradient Buffer Kit as the mobile phase. Ultraviolet signal at a wavelength of 280 nm was collected.

A further data set relates to Calu-6 cells. Put plainly: In vitro cell proliferation test (CellTiter-Glo), Calu-6. The data set is classed as cell-based. Conditions: ADCs with various drug loadings, procedures as Test Example 6. The method, then:
(§2) EMEM medium preparation: MEM medium (GE, CAT #SH30024.01), NEAA (sigma, CAT#M7145-100ML) and sodium pyruvate solution (sigma, CAT #S8636-100ML). […] Then the cells were resuspended by the addition of fresh medium. The cells were counted, and the cell suspension was formulated to the corresponding density (U87MG cells: 500 cells/well; […] 180 μL of cell suspension was added to a 96-well plate, and 200 μL of medium was added to the periphery of the 96-well plate. The plate was incubated for 24 hours in an incubator (37° C., 5% CO2). […] The samples were added to the plate, which was incubated for 6 days in the incubator (37° C., 5% CO2). 90 μl of CellTiter-Glo reagent was added to each well of the 96-well plate, and the plate was left to stand in the dark at room temperature for 10 minutes. The chemiluminescence signal value was read in Victor3, and the data was processed by GraphPad software.
Background: Cellular ATP, detected with luciferase, serves as a proxy for viable cell number.

In the next data set the test system is Detroit562 cells. Description: In vitro cell proliferation test (CellTiter-Glo), Detroit562. The data set is classed as cell-based, human. Conditions: ADCs with various drug loadings, procedures as Test Example 6. Here is the method:
as §2

Another data set deals with CHOK1 cells. Put plainly: In vitro cell proliferation test (CellTiter-Glo), CHO-K1. The data set is classed as cell-based. To be noted: ADCs with various drug loadings, procedures as Test Example 6. Here is the method:
Then the cells were resuspended by the addition of fresh medium. The cells were counted, and the cell suspension was formulated to the corresponding density (U87MG cells: 500 cells/well; […] 180 μL of cell suspension was added to a 96-well plate, and 200 μL of medium was added to the periphery of the 96-well plate. The plate was incubated for 24 hours in an incubator (37° C., 5% CO2). […] The samples were added to the plate, which was incubated for 6 days in the incubator (37° C., 5% CO2). 90 μl of CellTiter-Glo reagent was added to each well of the 96-well plate, and the plate was left to stand in the dark at room temperature for 10 minutes. The chemiluminescence signal value was read in Victor3, and the data was processed by GraphPad software.

B1: h1702DS: anti-B7H3 antibody, light chain mutant of 1702; heavy chain SEQ ID NO: 14, light chain SEQ ID NO: 16 (antibody)
heavy: QVQLVQSGGGVVQPGTSLRLSCAASGFIFSSSAMHWVRQAPGKGLEWVAVISYDGSNKYYVDSVKGRFTISRDNSKNTLYLQMNSLRAEDTAVYYCARSARLYASFDYWGQGALVTVSS[human IgG1 constant region not listed]
light: DTVVTQEPSFSVSPGGTVTLTCGLSSGSVSTSHYPSWYQQTPGQAPRMLIYNTNTRSSGVPDRFSGSILGNKAALTITGAQADDESDYYCAIHVDRDIWVFGGGTKLTVLGQPKANPTVTLFPPSSEELQANKATLVCLISDFYPGAVTVAWKADGSPVKAGVETTKPSKQSNNKYAASSYLSLTPEQWKSHRSYSCQVTHEGSTVEKTVAPTEC
modifications: Synthetic Sequence_Heavy chain (IgG1) amino acid sequence of 1702; Synthetic Sequence_Light chain sequence of 1702DS after mutation modification
With B1, the SEC in data set [1] was found to be 100%. In addition, the “CE-SDS (pH9.0)” value in data set [2] came out at 94.67%. The IEX in data set [3] is 86.21%. In addition, the “Calu-6 Maximum inhibition rate (%)” value in the data set with Calu-6 cells came out at 0.99%. Besides, the IC50 in the data set on Calu-6 cells (read-out: Calu-6 IC50), in the data set on Detroit562 cells (read-out: Detroit562 IC50) and in the data set on CHOK1 cells (read-out: CHOK1 IC50) was more than 500 nM each time. In the data set on Detroit562 cells, the “Detroit562 Maximum inhibition rate (%)” value is listed as −2.77%. Also, the “CHOK1 Maximum inhibition rate (%)” value with CHOK1 cells was 12.62%.

A word on the IC50: it is the midpoint of a concentration-inhibition curve.
